The record followed here is the RNAGym collection of RNA variant scans (doi:10.1093/nar/gkz1192).

The source gives no read counts; variants with many changes may rest on few reads.

B1: CPEB3 Ribozyme (parent)
chain: UAACAGGGGGCCACAGCAGAAGCGUUCACGUCGCAGCCCCUGUCAGAUUCUGGUGAAUCUGCGAAUUCUGCUGUAUAUCUC

Variants of B1 are the subject of the data set. Description: self-cleavage, relative activity (ratio to wild type); higher = more cleavage; in vitro, sequencing. In short, it runs like this: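 CPEB3 self-cleaving ribozyme mutant libraries were made by rounds of error-prone PCR, barcoded, and transcribed in vitro with T7 RNA polymerase for 5 hours at 37°C. Cleavage occurred during transcription and a 15 min DNase I step before EDTA stop. RNAs were reverse transcribed with template switching and Illumina-sequenced, with DNA sequencing mapping barcodes to variants. Relative activity is the variant's cleaved/total read fraction divided by wild type's (minimum 5 reads), averaged across three batches.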
Regarding A13G U31A U67C, the self-cleavage stood at 0.12. As to A13U A15U U31C U41C, the self-cleavage turned out to be 0.59. Next, A13G U49C U67A G70A: 0.12; A13U A15G U25A U43C A45G A57U: 0.04; A13G G30U C34G: 0.08. For the variant A13G U26A U41C U67C, the self-cleavage turned out to be 0.09. Next, A13U A15U U41A G63A U67C: 0.49; A13G U43C U66C U67C U69A: 0.21.

As to A13G U31A A35G U60C A65G, the self-cleavage was 0.09. Next, A13G U43C A45C U72A: 0.14; A13U A18G U41C G73A: 1.18.

Regarding A13G U25C A28G U66C, the self-cleavage was 0.28. Next, A13G U41A G63A U67A U72A: 0.05. Next, A13G U25A U60C U72C U76A U78A: 0.08; A13U A15G U26C: 0.25. For the variant A13G G53A A65U A77G, the self-cleavage is 0.19. Next, A13G G33C U78C: 0.13; A13G U26A G30A U67A: 0.23; A13G U31A C68U U80C: 0.27. Next, A13G U25A C32A U43A U49C: 0.05. As for A13U A15G U25C A35G U72A, the self-cleavage amounted to 0.04. As for A13U A18G U41C A75U, the self-cleavage came to 0.96. In the case of A13G U69A A77G, the self-cleavage was determined as 0.47. Next, A13G U51G U58C: 0.22; A13U A15G A28G C34U U49C U72C A77U: 0.07; A13G U26C U41G G70A U80C: 0.14. With A13G U25C U41C U51G the figure was 0.32. Next, A13G U41C U49C: 0.25; A13U A18G U31G U43A U69C U72C: 1.03; A13G U26A U43C A47G U58A U80A: 0.11. On to A13G U26C A45U U69A G70A, for which the self-cleavage stood at 0.2. As to A13G U26C C27A C81U, the self-cleavage amounted to 0.13.

As for A13G C59U U60A U80A, the self-cleavage is 0.13. On to A13G U26C G33A C40U U41C C68G, for which the self-cleavage was determined as 0.04.

On to A13U A18G A28G, for which the self-cleavage stood at 0.35. A13U A15U U67C U72C: the self-cleavage came to 0.18. Next, A13U A18G A20C A21G A35U U49A U67A: 0.05. Regarding A13G U26C U43C U51A, the self-cleavage is 0.56. On to A13G G24A C38U U49A U60A A64G C71U, for which the self-cleavage stood at 0.04.

Regarding A13G U54C U58A U60C U67G, the self-cleavage was 0.03. For A13U A15C U66C, the self-cleavage came out at 0.18. Next, A13G C39G U67C: 0.23; A13G G33C A45U U60G C81U: 0.1.

Regarding A13U A18G A20U A47G G53A U80C, the self-cleavage is 0.08.

Turning to A13G U31C U54G U69C, the self-cleavage stood at 0.07. Next, A13G U31A U49C: 0.34; A13G U51C G52U A56G A64U: 0.19; A13G U26A U51A: 0.81.

For A13G U26A U51C, the self-cleavage amounted to 0.79. With A13G U31C U51C the figure was 0.34.

Turning to A13G G16U A20G U54C U67C, the self-cleavage came out at 0.1. A13G U41C U54C: the self-cleavage stood at 0.83. Next, A13G U26G A45G U72C U78C: 0.74; A13U A15C A28G A35G U51C G73A: 0.75. With A13U A15G A20G A64G the figure was 0.29. For A13G U31A A45U A57G, the self-cleavage came out at 0.22.

As for A13G G16C A28G U60C, the self-cleavage was 0.67. Next, A13G U25C U54C U66C A75G: 0.07. With A13G U26C U43C U49A A57G, the self-cleavage was 0.05. A13G G24A U43C: the self-cleavage amounted to 0.15. With A13G U43C A47G the figure was 0.44; with A13U A18G G22A U25C U51C U54C, 0.07. In the case of A13U A15G A18U U48C A56G A77G U78A, the self-cleavage worked out at 0.07. Next, A13G G33U A35C: 0.08; A13G U25A C29U A57G U76C: 0.11; A13G G24U U26A A35U C40U: 0.16. On to A13G C39U A45U C81U, for which the self-cleavage worked out at 0.36. With A13G U31C G33A U41A, the self-cleavage was 0.07. Next, A13G U43G C62G U80C: 0.2; A13G U41C A64G: 0.63; A13G G22A U48C U60G: 0.08.

Regarding A13G U26C G30A C50G A64G, the self-cleavage came to 0.19. With A13G U43A U58A the figure was 0.38; with A13G U51C C68A, 0.33. With A13U A18G U41A U58C the figure was 0.07; with A13G U26A A35G G61C, 0.09. With A13G U26C C38U the figure was 0.22. As for A13U A15C A64G U74C A75U, the self-cleavage was determined as 0.39. With A13G U58C U60A the figure was 0.12. On to A13G U51C G73A U74C, for which the self-cleavage was determined as 1.34.

As for A13G U54A A64G, the self-cleavage is 0.7.

With A13G U26C A28U, the self-cleavage is 0.37.

For the variant A13G U26A A28C U41A A45G, the self-cleavage is 0.08. Consider A13U A15G A21U A28C U41C A56G U78C, for which the self-cleavage is 0.03. On to A13U A15G U48C C62A, for which the self-cleavage is 0.32. Turning to A13G U26C A65U, the self-cleavage amounted to 0.17.

As for A13U A15G U25C U41G U76A A77G, the self-cleavage amounted to 0.1. In the case of A13G C32A A64U, the self-cleavage amounted to 0.15. Next, A13U A18G U26C U60C U78A: 0.12; A13G U54C C71U U72C: 0.1. Regarding A13U A15G U25A U60A U69A, the self-cleavage came to 0.01. For the variant A13U A15U U26A U51A U54A, the self-cleavage came out at 0.33.

Take A13G U43C G53A U60C U67C A75G: the self-cleavage was found to be 0.08. As to A13G U31A C34A A64G, the self-cleavage stood at 0.12. Consider A13G U26C U41A U54C U78A, for which the self-cleavage worked out at 0. Next, A13G G19C A47G A56G U66C: 0.07; A13G U60C U78C: 0.38; A13G U48C A77G U78C: 0.2.

For the variant A13G C29U U54C U78C, the self-cleavage is 0.2. With A13G U31C G36C G53A A65U the figure was 0.09; with A13G U25G U78C, 0.22. Next, A13G U60A U72C: 0.33; A13G U26C U67A: 0.07.

As for A13G U51C U54C A56U U58A, the self-cleavage was 0.25.

As to A13G U54A A57G U67A, the self-cleavage amounted to 0. With A13G U74C U80A the figure was 0.8. On to A13G U25C U78C, for which the self-cleavage worked out at 0.21.

Regarding A13G U26A A35U U51A A57U A64U U67C, the self-cleavage came out at 0.08. For A13G U25C U69C, the self-cleavage worked out at 0.17. For A13U A15G A56G U78C, the self-cleavage is 0.93. As for A13G U25A U51C U72C, the self-cleavage stood at 0.4. With A13G G24A A35G U66C the figure was 0.09.

Consider A13G G55A U66C, for which the self-cleavage worked out at 0.14. Next, A13G U43C A65G: 0.2; A13G G30A C37A A47U G53A A65U: 0.07; A13G U51G A77G: 0.6. Next, A13G G24A U26C U54C U74C: 0.1. A13G U31C U78C: the self-cleavage came out at 0.52.

Consider A13G U25C G30A U41C U54C U78C, for which the self-cleavage was 0.1. With A13G U31C U41C U69C U80A the figure was 0.17. With A13G U26A U31C U58C A65U U72C the figure was 0.08; with A13G C40A U51G A57G, 0.17. Take A13U A15G C32U U51C: the self-cleavage turned out to be 0.19. As to A13U A18G U54G, the self-cleavage was 0.62.

In the case of A13G U26C U54C, the self-cleavage came out at 0.63. With A13G U43A U48C U58C U72C the figure was 0.09; with A13G G22C U49C U51A, 0.05; with A13U A15U A64G, 0.6. With A13G U26G U60A C81U the figure was 0.07. With A13U A15G A18U C38A U41A C68A C81U the figure was 0.04; with A13U A15U A20G U43C U80A, 0.1; with A13G U60A A65U, 0.11. Regarding A13G U41C U67C U74C, the self-cleavage amounted to 0.17.

Consider A13G G16A A28G C62U, for which the self-cleavage was 0.35. With A13U A18G G24A U26A U48C G70A U72C the figure was 0.08. With A13G U25C A56G A64G the figure was 0.29; with A13G U41C A45G U78A, 0.58; with A13U A18G U54G G61C U74C, 0.26. Next, A13U A15G U51A A56G U72A: 0.45; A13G U54G U74A: 1.11. In the case of A13G U26C U58C, the self-cleavage worked out at 0.17. Next, A13U A15G A21G U49A: 0.1; A13G U26C A28G G73C: 0.23.

For A13G U43A C50G U78C, the self-cleavage was 0.25.

As for A13U A15G U41C U60C, the self-cleavage came to 0.35. With A13U A18G A20U U58C U66C U69C U80A the figure was 0.07; with A13U A18G U60A U80C, 0.41. On to A13G U31A A56G U58C, for which the self-cleavage turned out to be 0.2. Regarding A13G U51A A56G, the self-cleavage amounted to 0.53. With A13U A15G A45G U80C the figure was 1.01. With A13G C40A U74C the figure was 0.07. Next, A13U A18C U67A: 0.22; A13G G30A U49C U54C A56G A65U: 0.02; A13G G36A U58A: 0.17.

A13G G30A U31C: the self-cleavage amounted to 0.25. Next, A13G U43A U80C: 1.12; A13G U26G C29A A56U A64G U66C: 0.05; A13U A15U U60C: 0.12.

For the variant A13G U31A U43C U58C, the self-cleavage came to 0.08. With A13G C62A U67C the figure was 0.16; with A13G U51C U80C, 0.81.

In the case of A13G U43A A47G U74A, the self-cleavage is 1.26. With A13G G73U U76C U78C, the self-cleavage came out at 1.16. With A13G U54C G61A the figure was 0.36.

Turning to A13G U25C U43C, the self-cleavage turned out to be 0.23.

With A13G G33U U43C A47G U54C U69C, the self-cleavage amounted to 0.07. For A13G G52U U54G A65G U80A, the self-cleavage was 0.45.
